Test results published in paper PMC10117376.
Results are given in words; binding and its absence hold for the method and conditions named. In cells and extracts the contact can be indirect. Some binding calls cover weakened binding; strength is not graded here. Tags and fused reporters may be left off the sequences shown.

Chains of the proteins cited; added tags and fusions are not shown.
UniProt Q6W2J9: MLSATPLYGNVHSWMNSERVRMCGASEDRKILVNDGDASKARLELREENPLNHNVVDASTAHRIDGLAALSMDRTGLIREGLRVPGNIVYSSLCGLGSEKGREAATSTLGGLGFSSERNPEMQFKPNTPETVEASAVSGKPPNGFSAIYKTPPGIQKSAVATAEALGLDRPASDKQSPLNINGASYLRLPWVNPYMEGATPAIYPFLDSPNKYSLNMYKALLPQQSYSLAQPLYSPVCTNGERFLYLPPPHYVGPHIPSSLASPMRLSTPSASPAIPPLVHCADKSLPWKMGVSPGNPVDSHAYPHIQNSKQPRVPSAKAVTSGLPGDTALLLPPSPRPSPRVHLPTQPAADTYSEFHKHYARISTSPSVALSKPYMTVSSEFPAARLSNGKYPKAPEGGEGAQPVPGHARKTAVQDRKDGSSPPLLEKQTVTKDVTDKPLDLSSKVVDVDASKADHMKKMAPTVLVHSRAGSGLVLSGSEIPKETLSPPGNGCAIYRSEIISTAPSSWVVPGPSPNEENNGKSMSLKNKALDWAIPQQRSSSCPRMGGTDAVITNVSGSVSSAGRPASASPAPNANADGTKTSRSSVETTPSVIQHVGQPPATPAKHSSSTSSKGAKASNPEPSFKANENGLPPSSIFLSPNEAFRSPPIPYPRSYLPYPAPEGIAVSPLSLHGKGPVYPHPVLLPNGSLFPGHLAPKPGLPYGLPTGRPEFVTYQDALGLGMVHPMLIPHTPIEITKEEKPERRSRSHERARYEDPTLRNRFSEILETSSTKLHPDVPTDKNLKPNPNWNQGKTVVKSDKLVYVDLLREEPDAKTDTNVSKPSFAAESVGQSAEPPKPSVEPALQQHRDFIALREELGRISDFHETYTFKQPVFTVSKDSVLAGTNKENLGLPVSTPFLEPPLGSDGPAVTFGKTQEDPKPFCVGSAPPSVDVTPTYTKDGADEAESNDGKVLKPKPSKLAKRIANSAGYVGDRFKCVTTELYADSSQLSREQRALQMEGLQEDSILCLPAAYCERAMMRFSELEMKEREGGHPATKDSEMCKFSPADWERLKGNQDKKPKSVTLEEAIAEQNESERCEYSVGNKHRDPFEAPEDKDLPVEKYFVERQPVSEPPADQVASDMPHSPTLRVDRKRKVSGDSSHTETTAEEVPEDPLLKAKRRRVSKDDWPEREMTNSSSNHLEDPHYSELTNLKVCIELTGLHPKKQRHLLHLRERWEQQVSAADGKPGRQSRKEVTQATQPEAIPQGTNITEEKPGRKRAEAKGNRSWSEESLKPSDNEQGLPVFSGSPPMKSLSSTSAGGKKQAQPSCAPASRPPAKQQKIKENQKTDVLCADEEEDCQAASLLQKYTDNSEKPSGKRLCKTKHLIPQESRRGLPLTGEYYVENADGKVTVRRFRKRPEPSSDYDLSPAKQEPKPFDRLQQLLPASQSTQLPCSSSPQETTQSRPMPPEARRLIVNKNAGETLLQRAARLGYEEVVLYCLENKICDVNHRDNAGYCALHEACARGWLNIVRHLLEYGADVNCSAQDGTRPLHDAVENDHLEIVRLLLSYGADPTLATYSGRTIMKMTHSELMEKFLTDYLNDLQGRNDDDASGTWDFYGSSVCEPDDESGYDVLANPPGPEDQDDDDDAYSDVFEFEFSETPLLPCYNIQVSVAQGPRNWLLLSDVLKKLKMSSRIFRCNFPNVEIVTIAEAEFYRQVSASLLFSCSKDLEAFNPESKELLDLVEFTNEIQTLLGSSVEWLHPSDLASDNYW
UniProt Q8WXI9: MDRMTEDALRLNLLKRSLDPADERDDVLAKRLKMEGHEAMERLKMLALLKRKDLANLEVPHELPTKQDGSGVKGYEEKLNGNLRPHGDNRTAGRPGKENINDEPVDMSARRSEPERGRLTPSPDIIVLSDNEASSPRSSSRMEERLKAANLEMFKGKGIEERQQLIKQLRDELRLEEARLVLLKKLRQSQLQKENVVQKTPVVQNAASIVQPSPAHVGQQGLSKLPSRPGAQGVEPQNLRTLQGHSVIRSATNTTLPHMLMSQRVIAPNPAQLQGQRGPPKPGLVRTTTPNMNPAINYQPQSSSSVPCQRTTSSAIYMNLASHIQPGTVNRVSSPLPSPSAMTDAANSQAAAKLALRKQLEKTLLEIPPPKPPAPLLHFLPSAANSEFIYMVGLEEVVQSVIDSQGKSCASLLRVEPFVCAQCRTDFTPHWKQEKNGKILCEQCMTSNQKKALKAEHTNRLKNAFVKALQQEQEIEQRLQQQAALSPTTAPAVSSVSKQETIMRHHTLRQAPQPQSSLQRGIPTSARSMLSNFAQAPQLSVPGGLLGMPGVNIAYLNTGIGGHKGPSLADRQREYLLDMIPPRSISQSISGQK

T1: YFP-TBR1 (human) (UniProt Q16650)
T1 sequence: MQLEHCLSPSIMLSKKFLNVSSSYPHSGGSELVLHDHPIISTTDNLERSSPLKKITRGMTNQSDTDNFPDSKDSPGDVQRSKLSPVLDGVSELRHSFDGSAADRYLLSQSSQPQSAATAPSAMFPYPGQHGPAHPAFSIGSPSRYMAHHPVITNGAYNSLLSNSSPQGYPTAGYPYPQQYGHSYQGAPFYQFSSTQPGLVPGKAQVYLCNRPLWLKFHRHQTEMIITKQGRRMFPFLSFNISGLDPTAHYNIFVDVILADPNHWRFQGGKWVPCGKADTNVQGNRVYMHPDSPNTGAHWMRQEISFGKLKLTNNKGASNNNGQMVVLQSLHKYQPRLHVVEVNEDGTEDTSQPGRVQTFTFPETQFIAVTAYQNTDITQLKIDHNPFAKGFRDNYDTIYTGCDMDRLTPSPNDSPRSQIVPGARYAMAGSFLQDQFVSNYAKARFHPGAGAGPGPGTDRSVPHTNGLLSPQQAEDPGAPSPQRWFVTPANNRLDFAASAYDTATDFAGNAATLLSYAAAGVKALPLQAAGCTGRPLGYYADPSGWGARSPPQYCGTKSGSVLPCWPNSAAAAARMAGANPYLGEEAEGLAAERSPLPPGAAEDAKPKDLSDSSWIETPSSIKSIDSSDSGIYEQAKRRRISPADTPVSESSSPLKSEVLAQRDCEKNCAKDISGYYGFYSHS

T2: YFP-TBR1 p.K228E (human) (UniProt Q16650)
T2 sequence: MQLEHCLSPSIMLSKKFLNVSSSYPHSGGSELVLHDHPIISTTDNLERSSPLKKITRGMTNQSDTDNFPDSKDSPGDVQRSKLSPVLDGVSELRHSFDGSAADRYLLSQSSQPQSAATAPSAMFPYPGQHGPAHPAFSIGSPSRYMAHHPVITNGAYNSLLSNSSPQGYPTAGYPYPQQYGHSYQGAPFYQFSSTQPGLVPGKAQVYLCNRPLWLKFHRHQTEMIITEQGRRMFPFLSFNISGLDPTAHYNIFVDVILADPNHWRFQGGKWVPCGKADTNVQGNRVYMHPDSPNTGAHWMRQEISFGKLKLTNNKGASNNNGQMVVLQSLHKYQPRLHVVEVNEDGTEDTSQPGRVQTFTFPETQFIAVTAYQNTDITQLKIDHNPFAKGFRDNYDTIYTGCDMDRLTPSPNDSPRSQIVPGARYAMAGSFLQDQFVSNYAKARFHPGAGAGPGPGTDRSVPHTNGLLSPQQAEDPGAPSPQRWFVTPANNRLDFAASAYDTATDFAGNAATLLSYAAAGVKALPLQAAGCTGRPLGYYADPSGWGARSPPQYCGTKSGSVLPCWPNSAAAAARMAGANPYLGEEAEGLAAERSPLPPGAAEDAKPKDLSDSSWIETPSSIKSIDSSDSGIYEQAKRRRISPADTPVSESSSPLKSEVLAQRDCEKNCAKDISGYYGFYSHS

T3: YFP-TBR1 p.N394* (human) (UniProt Q16650)
T3 sequence: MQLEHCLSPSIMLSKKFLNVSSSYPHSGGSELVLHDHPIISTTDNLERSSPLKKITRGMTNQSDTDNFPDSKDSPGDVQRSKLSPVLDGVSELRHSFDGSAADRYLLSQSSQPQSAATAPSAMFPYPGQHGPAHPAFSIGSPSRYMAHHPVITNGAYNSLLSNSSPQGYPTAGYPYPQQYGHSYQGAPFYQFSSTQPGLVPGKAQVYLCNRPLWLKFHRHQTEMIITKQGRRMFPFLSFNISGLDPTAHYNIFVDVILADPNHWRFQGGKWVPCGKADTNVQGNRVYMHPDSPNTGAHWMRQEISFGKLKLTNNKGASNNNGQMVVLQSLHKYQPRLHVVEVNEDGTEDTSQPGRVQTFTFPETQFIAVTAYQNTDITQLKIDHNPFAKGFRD

T4: YFP-TBR1 p.V356M (human) (UniProt Q16650)
T4 sequence: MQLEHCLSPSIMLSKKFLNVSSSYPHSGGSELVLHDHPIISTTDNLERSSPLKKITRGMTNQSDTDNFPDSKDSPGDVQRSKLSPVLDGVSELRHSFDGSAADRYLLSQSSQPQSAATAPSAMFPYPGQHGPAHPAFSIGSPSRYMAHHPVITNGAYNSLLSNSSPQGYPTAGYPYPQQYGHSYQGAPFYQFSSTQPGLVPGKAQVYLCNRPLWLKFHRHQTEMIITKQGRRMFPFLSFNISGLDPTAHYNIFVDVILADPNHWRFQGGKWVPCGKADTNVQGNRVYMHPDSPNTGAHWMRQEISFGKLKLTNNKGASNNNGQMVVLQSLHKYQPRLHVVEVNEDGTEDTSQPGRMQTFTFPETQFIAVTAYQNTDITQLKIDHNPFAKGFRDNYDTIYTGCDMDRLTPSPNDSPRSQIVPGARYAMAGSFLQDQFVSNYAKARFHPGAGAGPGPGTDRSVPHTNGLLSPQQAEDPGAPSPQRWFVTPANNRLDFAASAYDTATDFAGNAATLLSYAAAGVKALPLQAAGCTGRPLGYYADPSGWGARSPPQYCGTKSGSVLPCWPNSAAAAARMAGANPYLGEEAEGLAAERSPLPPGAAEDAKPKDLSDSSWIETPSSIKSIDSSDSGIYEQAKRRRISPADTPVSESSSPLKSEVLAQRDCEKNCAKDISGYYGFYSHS

B1: Rluc-ADNP (protein, UniProt Q9H2P0 1-1102)
chain: MFQLPVNNLGSLRKARKTVKKILSDIGLEYCKEHIEDFKQFEPNDFYLKNTTWEDVGLWDPSLTKNQDYRTKPFCCSACPFSSKFFSAYKSHFRNVHSEDFENRILLNCPYCTFNADKKTLETHIKIFHAPNASAPSSSLSTFKDKNKNDGLKPKQADSVEQAVYYCKKCTYRDPLYEIVRKHIYREHFQHVAAPYIAKAGEKSLNGAVPLGSNAREESSIHCKRCLFMPKSYEALVQHVIEDHERIGYQVTAMIGHTNVVVPRSKPLMLIAPKPQDKKSMGLPPRIGSLASGNVRSLPSQQMVNRLSIPKPNLNSTGVNMMSSVHLQQNNYGVKSVGQGYSVGQSMRLGLGGNAPVSIPQQSQSVKQLLPSGNGRSYGLGSEQRSQAPARYSLQSANASSLSSGQLKSPSLSQSQASRVLGQSSSKPAAAATGPPPGNTSSTQKWKICTICNELFPENVYSVHFEKEHKAEKVPAVANYIMKIHNFTSKCLYCNRYLPTDTLLNHMLIHGLSCPYCRSTFNDVEKMAAHMRMVHIDEEMGPKTDSTLSFDLTLQQGSHTNIHLLVTTYNLRDAPAESVAYHAQNNPPVPPKPQPKVQEKADIPVKSSPQAAVPYKKDVGKTLCPLCFSILKGPISDALAHHLRERHQVIQTVHPVEKKLTYKCIHCLGVYTSNMTASTITLHLVHCRGVGKTQNGQDKTNAPSRLNQSPSLAPVKRTYEQMEFPLLKKRKLDDDSDSPSFFEEKPEEPVVLALDPKGHEDDSYEARKSFLTKYFNKQPYPTRREIEKLAASLWLWKSDIASHFSNKRKKCVRDCEKYKPGVLLGFNMKELNKVKHEMDFDAEWLFENHDEKDSRVNASKTADKKLNLGKEDDSSSDSFENLEEESNESGSPFDPVFEVEPKISNDNPEEHVLKVIPEDASESEEKLDQKEDGSKYETIHLTEEPTKLMHNASDSEVDQDDVVEWKDGASPSESGPGSQQVSDFEDNTCEMKPGTWSDESSQSEDARSSKPAAKKKATMQGDREQLKWKNSSYGKVEGFWSKDQSQWKNASENDERLSNPQIEWQNSTIDSEDGEQFDNMTDGVAEPMHGSLAGVKLSSQQA
B2: Rluc-NR2F1 (protein, UniProt P10589 1-423)
chain: MAMVVSSWRDPQDDVAGGNPGGPNPAAQAARGGGGGAGEQQQQAGSGAPHTPQTPGQPGAPATPGTAGDKGQGPPGSGQSQQHIECVVCGDKSSGKHYGQFTCEGCKSFFKRSVRRNLTYTCRANRNCPIDQHHRNQCQYCRLKKCLKVGMRREAVQRGRMPPTQPNPGQYALTNGDPLNGHCYLSGYISLLLRAEPYPTSRYGSQCMQPNNIMGIENICELAARLLFSAVEWARNIPFFPDLQITDQVSLLRLTWSELFVLNAAQCSMPLHVAPLLAAAGLHASPMSADRVVAFMDHIRIFQEQVEKLKALHVDSAEYSCLKAIVLFTSDACGLSDAAHIESLQEKSQCALEEYVRSQYPNQPSRFGKLLLRLPSLRTVSSSVIEQLFFVRLVGKTPIETLIRDMLLSGSSFNWPYMSIQCS
B3: Rluc-NR2F2 (protein, UniProt P24468 1-414)
chain: MAMVVSTWRDPQDEVPGSQGSQASQAPPVPGPPPGAPHTPQTPGQGGPASTPAQTAAGGQGGPGGPGSDKQQQQQHIECVVCGDKSSGKHYGQFTCEGCKSFFKRSVRRNLSYTCRANRNCPIDQHHRNQCQYCRLKKCLKVGMRREAVQRGRMPPTQPTHGQFALTNGDPLNCHSYLSGYISLLLRAEPYPTSRFGSQCMQPNNIMGIENICELAARMLFSAVEWARNIPFFPDLQITDQVALLRLTWSELFVLNAAQCSMPLHVAPLLAAAGLHASPMSADRVVAFMDHIRIFQEQVEKLKALHVDSAEYSCLKAIVLFTSDACGLSDVAHVESLQEKSQCALEEYVRSQYPNQPTRFGKLLLRLPSLRTVSSSVIEQLFFVRLVGKTPIETLIRDMLLSGSSFNWPYMAIQ

Assays:
Test in all cases: FRET or BRET; BRET in live HEK293 cells transfected with pairs of N-terminal Rluc and YFP fusions, 96-well plates; EnduRen substrate 48 h after transfection; Rluc-NLS and YFP-NLS as controls
YFP-TBR1 (human) = molecular target: T1, YFP-TBR1 (human)
YFP-TBR1 p.K228E (human) = molecular target: T2, YFP-TBR1 p.K228E (human)
YFP-TBR1 p.N394* (human) = molecular target: T3, YFP-TBR1 p.N394* (human)
YFP-TBR1 p.V356M (human) = molecular target: T4, YFP-TBR1 p.V356M (human)

Molecule | binding (YFP-TBR1 (human)) | binding (YFP-TBR1 p.K228E (human)) | binding (YFP-TBR1 p.N394* (human)) | binding (YFP-TBR1 p.V356M (human))
Rluc-BCOR (from UniProt Q6W2J9 1-1755) | binds | binds | no binding | binds
Rluc-GATAD2B (from UniProt Q8WXI9 1-593) | binds | binds | no binding | binds
B1 | binds | no binding | binds | binds
B2 | binds | binds | binds | binds
B3 | binds | binds | binds | binds
